Measurements reported in PubChem BioAssay AID2147 (National Center for Advancing Translational Sciences (NCATS), 2009).
The campaign covered roughly 230,000 compounds. About 3,600 (1.6%) were called active. The inconclusive results got no clear call from the source; some entries with a clear call stand among them for comparison. Calls come from the whole dose curve; as a rule, active = well fitted inhibition curve with a large enough effect (not every such curve was filed as active); inconclusive = small, poorly fitted or top-dose-only effect, or another doubt; inactive = no such curve, though single readings can be large or run the other way. Potencies of inconclusive entries are doubtful fits and often do not repeat.

What follows are compounds tested against Lysine-specific demethylase 4E (Homo sapiens) (UniProt B2RXH2) (assay: qHTS Assay for Inhibitors of Human Jumonji Domain Containing 2E (JMJD2E)). Conditions: JMJD2E catalytic domain, FDH-coupled NADH fluorescence (FDH is formaldehyde dehydrogenase); series mostly up to 57.1 µM.
Note: nearly all actives have a fitted effect of over 50% in size.
Potency is the fitted concentration of half-maximal effect; tags give direction and shape of the fitted curve.

Sequence of UniProt B2RXH2 (B2RXH2 whole entry, looked up, the tested form may be a part): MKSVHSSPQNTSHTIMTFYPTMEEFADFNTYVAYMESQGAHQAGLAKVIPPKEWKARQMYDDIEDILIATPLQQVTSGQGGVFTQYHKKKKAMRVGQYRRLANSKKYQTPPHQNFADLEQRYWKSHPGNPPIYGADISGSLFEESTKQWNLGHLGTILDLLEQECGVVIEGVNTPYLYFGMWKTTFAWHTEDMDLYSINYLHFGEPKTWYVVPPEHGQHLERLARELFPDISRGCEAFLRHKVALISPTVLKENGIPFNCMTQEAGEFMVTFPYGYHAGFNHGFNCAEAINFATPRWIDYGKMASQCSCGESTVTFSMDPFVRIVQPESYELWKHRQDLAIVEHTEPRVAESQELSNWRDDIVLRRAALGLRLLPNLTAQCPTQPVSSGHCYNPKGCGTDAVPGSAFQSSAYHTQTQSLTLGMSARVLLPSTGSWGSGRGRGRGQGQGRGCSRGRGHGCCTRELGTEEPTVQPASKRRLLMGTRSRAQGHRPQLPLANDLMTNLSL

Row | SMILES | Potency
1 | O=C(Cn1c(C(F)(F)F)nc2ccccc21)OCC(=O)c1c[nH]c2ccccc12 | inactive
2 | Cn1c(SCc2nc(-c3ccccc3)no2)nnc1-c1cccs1 | inactive
3 | FC(F)(F)c1cc(-c2ccco2)nc(NCc2cccs2)n1 | inconclusive: 22.4 µM [inhibitor, partial curve]
4 | O=C(CSc1ccc(C(F)(F)F)cc1[N+](=O)[O-])Nc1ccc2ccccc2c1 | inactive
5 | COCCCNC(=S)N1CCCN(c2nc3cc(C)ccc3cc2C#N)CC1 | inconclusive: 28.2 µM [inhibitor, partial curve]
6 | CCOc1ccc(OCCOCCN2CCOCC2)cc1 | inconclusive: 31.6 µM [inhibitor, single point]
7 | O=c1c2cc(N3CCOCC3)ccc2[nH]c(=S)n1Cc1cccc(Cl)c1 | inconclusive: 35.5 µM [inhibitor, single point]
8 | CCCCC(CC)c1nnc(NC(=O)c2cccs2)s1 (configuration not stated) | inconclusive: 35.5 µM [inhibitor, single point]
9 | O=c1c2cn[nH]c2nc(SCc2c(F)cccc2F)n1-c1ccc(Cl)cc1 | inactive
10 | CCOC(=O)C1CCN(c2ncnc3c2cnn3-c2ccc(Cl)cc2)CC1 | inconclusive: 35.5 µM [inhibitor, single point]
11 | COc1cccc2oc(-c3ccc(O)cc3)cc(=O)c12 | inconclusive: 22.4 µM [inhibitor, partial curve]
12 | CC(=O)c1ccc(NC(=O)CN2CCN(c3ncccn3)CC2)cc1 | inconclusive: 25.1 µM [inhibitor, single point]
13 | O=C(COc1cccc2c1CCN(Cc1ccc(Br)cc1)C2=O)NCc1ccco1 | inconclusive: 28.2 µM [inhibitor, single point]
14 | Cc1cc(-c2ccccc2)c2nncn2n1 | inconclusive: 0.891 µM [inhibitor, single point]
15 | CN1\C(=C/C=C/C=C/C=[N+](C)C)C(C)(C)c2ccccc21 | inconclusive: 22.4 µM [inhibitor, single point]
16 | Cc1ccc(Nc2oc(C)nc2C#N)cc1 | inactive
17 | O=C(Nc1nc2ccc(SC(F)F)cc2s1)c1ccc(NS(=O)(=O)c2ccc(F)c(F)c2)cc1 | inconclusive: 31.6 µM [inhibitor, partial curve]
18 | CSc1cc(-c2ccc(Cl)cc2)n(Cc2ccccc2)c(=O)c1C#N | inconclusive: 39.8 µM [inhibitor, single point]
19 | CC(=O)Nc1ccc(C(=O)NCC(=O)OCc2c(F)cccc2Cl)cc1 | inactive
20 | Cn1cccc1Cc1nnc(SCC(=O)NCc2ccc(F)cc2)n1-c1ccc(F)cc1 | inactive
21 | O=C(Nc1ccc2c(c1)CCC2)c1ccc(F)c(S(=O)(=O)N2CCOCC2)c1 | inconclusive: 39.8 µM [inhibitor, single point]
22 | COc1cc(/C=N/NC(=S)Nc2cccc(C(=O)O)c2)ccc1O | inconclusive: 31.6 µM [inhibitor, single point]
23 | O=[N+]([O-])c1ccc(-c2csc(Nc3ccccc3)[n+]2Cc2ccccc2)cc1 | inactive
24 | COc1ccc(CCNC(=S)NC2CCN(Cc3ccccc3)CC2)cc1OC | inactive

Row | SMILES | Potency
25 | Cc1cc(C)c2c(N)c3ccccc3nc2n1 | inconclusive: 31.6 µM [inhibitor, partial curve]
26 | CCN(CC)c1ccc(/C=C/C(=O)C2C(=O)C=C(C)OC2=O)cc1 (configuration not stated) | inconclusive: 28.2 µM [inhibitor, single point]
27 | Cc1ccc2nc3c(cc(C(=O)NCC4CCCO4)c(=N)n3CCCOC(C)C)c(=O)n2c1 (configuration not stated) | inconclusive: 25.1 µM [inhibitor, partial curve]
28 | N#CCOC(=O)/C=C/c1ccc2c(c1)OCO2 | inconclusive: 31.6 µM [inhibitor, single point]
29 | O=C(Oc1ccc2ccc(=O)oc2c1)c1cccs1 | inconclusive: 31.6 µM [inhibitor, partial curve]
30 | Cc1nc(-c2cc(C#N)c(=O)[nH]c2C)cs1 | inconclusive: 31.6 µM [inhibitor, partial curve]
31 | COc1ccc(/C=N/OCC(=O)N=Nc2c(O)[nH]c3ccc(Br)cc23)cc1OC | inactive
32 | COC(=O)c1ccsc1NC(=O)c1ccc2c(c1)OCCO2 | inconclusive: 35.5 µM [inhibitor, partial curve]
33 | Cc1ccc(C(=O)Nc2ccc(Oc3ccc(C(=O)O)c(C(=O)O)c3)cc2)cc1C | inactive
34 | O=C(COC(=O)c1cn(-c2ccccc2)nc1-c1ccc(F)cc1)Nc1ncc(Cl)cc1Cl | inactive
35 | CCOC(=O)c1sc(NC(=O)c2ccco2)nc1C | inconclusive: 39.8 µM [inhibitor, single point]
36 | COC(=O)c1c(-n2c(C)cc(C=O)c2C)sc2c1CCCC2 | inconclusive: 39.8 µM [inhibitor, single point]
37 | CCOC(=O)C1=C(CSc2nc(-c3ccccc3)ccc2C#N)OC(N)=C(C#N)C1c1ccccc1 (configuration not stated) | inactive
38 | C=CCN1C(=O)/C(=C/c2ccc(OC)cc2)S/C1=N/c1nccs1 | inactive
39 | CCOc1ccccc1-c1ccc(C(=O)NCc2ccccc2)o1 | inconclusive: 31.6 µM [inhibitor, partial curve]
40 | COc1ccc(CC(=O)n2nc(-c3ccccc3)nc2NCc2ccco2)cc1 | inconclusive: 39.8 µM [inhibitor, single point]
41 | CC1=NN(c2ccc(C(F)(F)F)cn2)C(=O)C1 | inconclusive: 39.8 µM [inhibitor, single point]
42 | O=C(CSc1nc2nc3c(cc2c(=O)n1-c1ccccc1)CCCC3)Nc1cccc2ccccc12 | inactive
43 | CC(=C1C(=O)c2ccccc2C1=O)N1CCN(c2ccccn2)CC1 | inconclusive: 28.2 µM [inhibitor, single point]
44 | CN1CCN(c2ccnc(-c3cccc(NS(C)(=O)=O)c3)n2)CC1 | inconclusive: 28.2 µM [inhibitor, single point]
45 | CCOc1ccc(N2CC(O)=C(c3nc4ccccc4c(=O)[nH]3)C2=N)cc1 | inconclusive: 7.08 µM [inhibitor, full curve]
46 | O=C1N/C(=N\N=C\c2ccco2)SC1Cc1ccccc1[N+](=O)[O-] (configuration not stated) | inactive
47 | COc1ccc(NC(C)c2ccccc2)cc1 (configuration not stated) | inactive
48 | CCc1c(C)nc2[nH]nc(-c3ccccc3)n2c1=O | inconclusive: 25.1 µM [inhibitor, partial curve]

Row | SMILES | Potency
49 | O=C(Nc1ccc(N2CCCC2)cc1)C(Cl)c1ccccc1 (configuration not stated) | inconclusive: 39.8 µM [inhibitor, single point]
50 | COc1ccc(-n2c(-c3ccc(Br)cc3)c[n+]3c2CCc2ccccc2-3)cc1 | inconclusive: 10 µM [inhibitor, partial curve]
51 | Cc1cc(=O)[nH]c2c(N=Nc3ccc(O)cc3)c(N)nn12 | inconclusive: 35.5 µM [inhibitor, single point]
52 | COc1ccccc1NCCC(=O)O | inactive
53 | O=C(/C=C/c1ccc(Cl)cc1Cl)c1cccnc1 | inconclusive: 39.8 µM [inhibitor, single point]
54 | Cc1nnsc1NC(=O)OCC(C)C | inconclusive: 39.8 µM [inhibitor, single point]
55 | Cc1cccc(S(=O)(=O)c2c(N)n(Cc3ccco3)c3nc4ccccc4nc23)c1 | inconclusive: 31.6 µM [inhibitor, partial curve]
56 | Cn1c(=O)c2c(-c3ccccc3)n(Cc3ccccn3)cc2n(C)c1=O | inconclusive: 35.5 µM [inhibitor, single point]
57 | CCc1ccccc1N1CSC2=C(C#N)C(c3cc(OC)c(OC)cc3OC)CC(=O)N2C1 (configuration not stated) | inconclusive: 3.55 µM [inhibitor, single point]
58 | Cc1cc(SCC(=O)N/N=C/c2ccc(O)c(O)c2)c(C)cc1Br | inconclusive: 39.8 µM [inhibitor, single point]
59 | COc1cccc(-n2c(SC3CCOC3=O)nc3ccccc3c2=O)c1 (configuration not stated) | inactive
60 | Nc1nc2ccc(-c3nc4ccccc4o3)cc2s1 | inconclusive: 25.1 µM [inhibitor, partial curve]
61 | CCOC(=O)c1sc(-c2cccs2)nc1C | inconclusive: 25.1 µM [inhibitor, partial curve]
62 | CCC(C)(C)C(=O)O[C@@H]1C[C@@H](C)C=C2C=C[C@H](C)[C@H](CC[C@@H]3C[C@@H](O)CC(=O)O3)[C@H]21 | inactive
63 | Nc1ccc(Cl)cc1C(=O)OCC(=O)NC1CCS(=O)(=O)C1 (configuration not stated) | inconclusive: 20 µM [inhibitor, partial curve]
64 | COc1ccc(-c2nc(C#N)c(N3CCCCCC3)o2)cc1OC | inconclusive: 31.6 µM [inhibitor, partial curve]
65 | C=CCOc1c(CNc2cccc(C(=O)O)c2)cccc1OCC | inconclusive: 25.1 µM [inhibitor, partial curve]
66 | O=C(CN1CCN(S(=O)(=O)c2ccccc2F)CC1)NC1CCCC1 | inactive
67 | Cc1cc(-c2nnc(CSc3nnc(NC(=O)c4ccc(C(C)(C)C)cc4)s3)o2)ccc1[N+](=O)[O-] | inactive
68 | COc1ccc(-n2nc3cc(C)c(NC(C)=O)cc3n2)cc1 | inconclusive: 7.08 µM [inhibitor, partial curve]
69 | CN(C)CC(=O)Nc1nc(-c2ccccc2)cs1 | inactive
70 | COc1ccc(C)cc1NC(=O)C(OC(=O)CNC(=O)c1ccc(Oc2ccccc2)cc1)c1ccccc1 (configuration not stated) | inconclusive: 35.5 µM [inhibitor, single point]
71 | CN(C)c1ccc(C(=O)Nc2nnc(-c3ccc(Cl)cc3)o2)cc1 | inconclusive: 22.4 µM [inhibitor, partial curve]
72 | CCOc1ccc(C(=O)Nc2cc(C)c3c(=O)oc4ccccc4c3n2)cc1 | inconclusive: 35.5 µM [inhibitor, single point]
